# Measurements published in PubChem BioAssay (Tox21).
# Several values for one entry are separate records, joined by “and”; a condition that tells them apart may be missing. Equal entries are not always repeated. Inconclusive results, whose numbers are uncertain, are shown with a selection of clear calls. Potencies of inconclusive entries are doubtful fits and often do not repeat. More than one record can exist for a structure, and the calls need not agree. Activity calls are given as the source filed them. Unless noted, calls come from the whole dose curve; as a rule, active = well fitted cell-killing curve with a large enough effect in the repeat runs; inconclusive = weak or mixed curves, or effect the other way; inactive = no such curve, though single readings can be large or run the other way.
# Tests used:
# [1] = qHTS assay to identify small molecule antagonists of the farnesoid-X-receptor (FXR) signaling pathway - cell viability counter screen (AID 743221; active = well fitted cell-killing curve with a large enough effect in the repeat runs, not every such curve was filed as active; inconclusive = weak or mixed curves, or effect the other way; inactive = no such curve, though single readings can be large or run the other way; note: nearly all actives have a fitted effect of over 50% in size); settings: FXR-bla HEK293T viability, CellTiter-Glo luminescence, 16 h; activity change, negative = cytotoxicity: at 62.6 µM (top of the series) unless noted
# Procedure, shortened: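 Luminescence from CellTiter-Glo measures cytotoxicity in GeneBLAzer FXR-UAS-bla HEK 293T cells. Cells were exposed to compounds with 50 uM chenodeoxycholic acid (final) for 16 h at 37 C, in wells also used for the reporter readout.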
# [2] = qHTS assay to identify small molecule agonists of the vitamin D receptor (VDR) signaling pathway - cell viability counter screen (AID 743224); note: nearly all actives have a fitted effect of over 50% in size
# Procedure, shortened: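 Cytotoxicity counter screen: VDR-bla cells, 16 h compound exposure at 37C, 5% CO2; CellTiter-Glo luminescence, 30 min RT, same wells as bla read.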
# [3] = qHTS assay to identify small molecule antagonists of the vitamin D receptor (VDR) signaling pathway - cell viability counter screen (AID 743225); settings: VDR-bla HEK293T viability, CellTiter-Glo luminescence, 16 h; viability change, negative = cytotoxic: at 61 µM (top of the series); note: nearly all actives have a fitted effect of over 50% in size
# Procedure, shortened: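 Read-out: CellTiter-Glo luminescence measured 30 min after reagent addition at room temperature. Cells were VDR-bla HEK 293T exposed 16 h at 37C, 5% CO2, to compound with 3 nM final calcitriol agonist.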
# [4] = qHTS assay to identify small molecule agonists of the NFkB signaling pathway (AID 1159509; active = well fitted curve in the direction sought with a large enough effect in the signal ratio in the repeat runs, not every such curve was filed as active; inconclusive = weak or mixed curves, or a change in a side signal; inactive = no such curve, though single readings can be large or run the other way; the % refers to the signal ratio; for activation: % is set by controls: 0 for no effect and ±100 for the full control effect); settings: NFkB-bla ME-180 cells, beta-lactamase FRET ratio, 5 h; activation: at 61 µM (top of the series) unless noted
# Procedure, shortened: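 Agonist activity was read as beta-lactamase-driven FRET change (460 and 530 nm emission, 405 nm excitation) following 1.5 hr substrate loading at room temperature. Beforehand, ME-180 NFkB-bla reporter cells were treated with compounds for 5 hr at 37 C.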
# [5] = molecular target: Vitamin D3 receptor (Homo sapiens) (UniProt P11473); assay: qHTS assay to identify small molecule antagonists of the vitamin D receptor (VDR) signaling pathway (AID 743223; active = well fitted inhibition curve with a large enough effect in the signal ratio in the repeat runs, not every such curve was filed as active; inconclusive = weak or mixed curves, or effect the other way; inactive = no such curve, though single readings can be large or run the other way; the % refers to the signal ratio; for activity change, negative = inhibition: % is set by controls: 0 for no effect and ±100 for the full control effect); settings: VDR-UAS-bla HEK293T, beta-lactamase FRET ratio, 16 h
# Chain of UniProt P11473 (P11473 whole entry, looked up): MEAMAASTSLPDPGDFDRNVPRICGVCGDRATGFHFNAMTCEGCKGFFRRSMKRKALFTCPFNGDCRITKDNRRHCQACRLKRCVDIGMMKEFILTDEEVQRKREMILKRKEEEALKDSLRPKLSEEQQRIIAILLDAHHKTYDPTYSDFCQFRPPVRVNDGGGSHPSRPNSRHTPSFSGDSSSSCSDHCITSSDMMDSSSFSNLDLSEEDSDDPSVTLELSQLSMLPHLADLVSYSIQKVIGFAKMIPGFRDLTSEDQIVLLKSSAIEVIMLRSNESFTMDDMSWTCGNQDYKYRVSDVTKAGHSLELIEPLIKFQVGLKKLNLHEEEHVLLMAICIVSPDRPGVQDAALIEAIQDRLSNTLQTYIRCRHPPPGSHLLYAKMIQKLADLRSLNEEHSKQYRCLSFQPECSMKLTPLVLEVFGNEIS
# Procedure, shortened: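 Antagonist mode uses 1alpha,25-dihydroxyvitamin D3 at 3 nM final as stimulus. VDR-bla cells receive compounds in DMSO, incubate 16 h at 37C, then a beta-lactamase FRET substrate for 2 h at room temperature before fluorescence measurement.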
# [6] = molecular target: Vitamin D3 receptor (Homo sapiens) (UniProt P11473); assay: qHTS assay to identify small molecule agonists of the vitamin D receptor (VDR) signaling pathway (AID 743222; calls by dose curve; for activation: % is set by controls: 0 for no effect and ±100 for the full control effect); settings: HEK293T VDR-UAS-bla, beta-lactamase FRET ratio, 16 h; activation: at 63.5 µM (top of the series) unless noted
# Procedure, shortened: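 Beta-lactamase reporter readout (LiveBLAzer B/G FRET, 2 h RT) in VDR-bla cells after 16 h compound treatment at 37C, 5% CO2; cells pre-incubated 4 h before pin transfer of DMSO solutions.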
# [7] = molecular target: Bile acid receptor (Homo sapiens) (UniProt Q96RI1); assay: qHTS assay to identify small molecule agonists of the farnesoid-X-receptor (FXR) signaling pathway (AID 743220; active = well fitted activation curve with a large enough effect in the signal ratio in the repeat runs, not every such curve was filed as active; inconclusive = weak or mixed curves, or effect the other way; the % refers to the signal ratio; for activation: % is set by controls: 0 for no effect and ±100 for the full control effect); settings: HEK293T FXR-UAS-bla, beta-lactamase FRET ratio, 16 h; activation: at 62.6 µM (top of the series) unless noted
# Chain of UniProt Q96RI1 (Q96RI1 whole entry, looked up): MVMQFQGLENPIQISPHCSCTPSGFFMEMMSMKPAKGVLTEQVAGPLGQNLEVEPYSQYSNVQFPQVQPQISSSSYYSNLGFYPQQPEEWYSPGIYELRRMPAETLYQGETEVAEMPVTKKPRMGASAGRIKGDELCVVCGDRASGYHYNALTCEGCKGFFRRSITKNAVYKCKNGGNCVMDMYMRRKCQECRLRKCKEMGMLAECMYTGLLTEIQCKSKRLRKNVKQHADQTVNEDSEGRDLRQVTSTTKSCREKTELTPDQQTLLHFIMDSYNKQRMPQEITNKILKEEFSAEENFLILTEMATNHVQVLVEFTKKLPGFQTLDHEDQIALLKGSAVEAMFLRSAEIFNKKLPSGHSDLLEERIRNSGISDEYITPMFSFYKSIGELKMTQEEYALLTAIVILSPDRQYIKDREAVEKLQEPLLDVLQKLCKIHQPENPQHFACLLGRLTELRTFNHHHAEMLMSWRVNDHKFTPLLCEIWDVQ
# Procedure, shortened: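 FXR-UAS-bla HEK 293T cells carrying a UAS-driven beta-lactamase reporter were plated for 5 h at 37C/5% CO2, then exposed to DMSO-dissolved Tox21 10K compounds for 16 h at 37C. A LiveBLAzer B/G FRET substrate was loaded for 2 h at room temperature before fluorescence reading.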
# [8] = qHTS assay to identify small molecule agonists of the farnesoid-X-receptor (FXR) signaling pathway - cell viability counter screen (AID 743218); settings: FXR-bla HEK293T viability, CellTiter-Glo luminescence, 16 h; viability change, negative = cytotoxic: at 62.6 µM (top of the series) unless noted; note: nearly all actives have a fitted effect of over 45% in size
# Procedure, shortened: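 Luminescence from CellTiter-Glo, read after 30 min at RT, reports viability of GeneBLAzer FXR-UAS-bla HEK 293T cells treated 16 h with compounds in the wells used for the beta-lactamase reporter.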
# [9] = qHTS assay to identify small molecule agonists of the NFkB signaling pathway - cell viability counter screen (AID 1159515; calls by dose curve; note: nearly all actives have a fitted effect of over 55% in size)
# Procedure, shortened: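 ME-180 NFkB-bla cells, 2,000/well; overnight attach; compound 5 hr, 37 C/5% CO2; LiveBLAzer substrate 1.5 hr RT; then CellTiter-Glo in same wells, 30 min RT, luminescence read.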
# [10] = qHTS assay to identify small molecule agonists of the endoplasmic reticulum stress response signaling pathway (AID 1159516; active = well fitted activation curve with a large enough effect in the signal ratio in the repeat runs, not every such curve was filed as active; inconclusive = weak or mixed curves, or effect the other way; the % refers to the signal ratio); settings: ESRE-bla HeLa, ER stress beta-lactamase reporter, 5 h
# Procedure, shortened: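 HeLa ESRE-bla reporter line; cpd 5 h, 37 C/5% CO2; LiveBLAzer B/G FRET substrate 2 h RT; ex 405, em 460/530 nm.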
# [11] = activity change, negative = inhibition: at 61 µM (top of the series) unless noted
# [12] = activation: at 61 µM (top of the series) unless noted
# Potency is the fitted concentration of half-maximal effect; tags give direction and shape of the fitted curve or compound fluorescence and quenching.
smiles,measurement,setting,value
COP(=O)(OC)O/C(=C\Cl)c1cc(Cl)c(Cl)cc1Cl,Potency,[1],"inconclusive: 7.76 µM [falling, partial curve, poor fit]"
same,Potency,[2],"inconclusive: 0.123 µM [cytotoxic, full curve, poor fit]"
same,Potency,[3],"inconclusive: 0.0195 µM [cytotoxic, full curve, poor fit]"
same,Potency,[4],"inconclusive: 61.6 µM [falling, partial curve]"
COC(=O)c1sccc1S(=O)(=O)NC(=O)Nc1nc(C)nc(OC)n1,Potency,[5]; [11],inactive
same,activation,[4],inconclusive: 3.78%
COP(=S)(NC(C)C)Oc1ccc(C)cc1[N+](=O)[O-] (stereo unspecified),Potency,[5]; [11],inactive
same,activation,[4],inconclusive: -0.28%
C=CCc1ccc(OC(=O)Cc2ccccc2)c(OC)c1,"activity change, negative = inhibition",[5]; [11],inconclusive: 27.4%
same,Potency,[4],"inconclusive: 27.5 µM [rising, partial curve]"
CN(C)CCO,"activity change, negative = inhibition",[5]; [11],inconclusive: 0.224%
same,"activity change, negative = inhibition",[5]; at 78.8 µM (top of the series),inactive: -11.7%
same,Potency,[2],"inconclusive: 55.3 µM [cytotoxic, single point]"
same,Potency,[4],inactive
C=CC(N)=O,Potency,[5]; [11],"inconclusive: 0.0012 µM [falling, partial curve, poor fit]"
same,Potency,[4],inactive
CC(C)(c1ccccc1)c1cc(-n2nc3ccccc3n2)c(O)c(C(C)(C)c2ccccc2)c1,Potency,[6],inactive
same,Potency,[4],"inconclusive: 6.74 µM [falling, partial curve, poor fit]"
CCc1cccc(C)c1N(C(=O)CCl)C(C)COC (stereo unspecified),Potency,[5]; [11],"inactive and inconclusive: 7.76 µM [activator, full curve, poor fit]"
same,Potency,[4],inactive
COP(=O)(O)OC,Potency,[7],inactive
same,Potency,[4],inactive
O=C(N[C@H]1CN2CCC1CC2)c1cc2ccoc2cn1,Potency,[6],"inconclusive: 54.9 µM [activator, single point]"
same,Potency,[5]; [11],"inconclusive: 0.0098 µM [inhibitor, full curve, poor fit]"
same,Potency,[4],inactive
Cc1cc(C)c(C(=O)P(=O)(C(=O)c2c(C)cc(C)cc2C)c2ccccc2)c(C)c1,Potency,[6],"inconclusive: 8.71 µM [fluorescent, partial curve]"
same,Potency,[2],"inconclusive: 24.5 µM [cytotoxic, partial curve, poor fit]"
same,Potency,[4],inactive
Cc1ccc(N=C=O)cc1N=C=O,"activity change, negative = inhibition",[5]; [11],inconclusive: 15.2%
same,Potency,[4],inactive
Clc1ccccc1Cl,activation,[6],inconclusive: 20.1% [at 81.1 µM]
same,"activity change, negative = inhibition",[5]; [11],inconclusive: -3.66% [at 78.8 µM]
same,Potency,[4],inactive
CSc1nnc(C(C)(C)C)c(=O)n1N,Potency,[6],inactive
same,Potency,[5]; [11],inactive
same,Potency,[3],"inconclusive: 1.08 µM [cytotoxic, single point]"
same,Potency,[4],inactive
CCCCCCCCCCCCOS(=O)(=O)O,Potency,[8],active: 49 µM and active: 24.5 µM
same,"viability change, negative = cytotoxic",[8],inconclusive: -49.5% [cytotoxic]
same,Potency,[3],"inconclusive: 54.2 µM [cytotoxic, single point] and inconclusive: 24.6 µM [cytotoxic, full curve] and active: 34.7 µM"
same,Potency,[9],"inconclusive: 60.8 µM [cytotoxic, partial curve, poor fit] and inconclusive: 49 µM [cytotoxic, partial curve] and inconclusive: 54.9 µM [cytotoxic, single point]"
same,Potency,[10]; [12],inactive
O=C(O)C(F)(F)C(F)(F)C(F)(F)C(F)(F)C(F)(F)C(F)(F)C(F)(F)F,Potency,[3],"inconclusive: 1.09 µM [cytotoxic, single point]"
same,"viability change, negative = cytotoxic",[3],inconclusive: -3.57% [cytotoxic]
same,Potency,[4],"inconclusive: 0.776 µM [rising, partial curve]"
CCCCCCCCCC(CC)c1ccc(S(=O)(=O)O)cc1 (stereo unspecified),Potency,[8],inconclusive: 48.9 µM [cytotoxic]
same,Potency,[1],"inconclusive: 55.2 µM [falling, single point] and inconclusive: 54.9 µM [falling, single point]"
same,Potency,[2],"inconclusive: 22.1 µM [cytotoxic, full curve] and inconclusive: 54.9 µM [cytotoxic, single point] and inconclusive: 34.7 µM [cytotoxic, partial curve]"
same,Potency,[3],"inconclusive: 19.5 µM [cytotoxic, partial curve] and inconclusive: 54.3 µM [cytotoxic, single point]"
same,Potency,[9],active: 48.9 µM and active: 21.3 µM
same,activation,[10]; [12],inconclusive: 9.72%
COc1cc(-c2ccc(N)c(OC)c2)ccc1N,Potency,[8],"inconclusive: 23.4 µM [cytotoxic, single point]"
same,Potency,[6],"inconclusive: 58.8 µM [cytotoxic, partial curve, poor fit]"
same,activation,[6],inconclusive: -6.22%
same,Potency,[2],"inconclusive: 41.7 µM [cytotoxic, partial curve]"
same,Potency,[9],inactive
same,activation,[10]; at 61 µM (top of the series),inconclusive: 0.0683%
same,activation,[10]; at 78.8 µM (top of the series),inconclusive: -2.25%
Oc1cc(Cl)ccc1Oc1ccc(Cl)cc1Cl,Potency,[8],"active: 42.1 µM and inconclusive: 29.8 µM [cytotoxic, single point]"
same,Potency,[7],inconclusive: 29.7 µM and inconclusive: 13.3 µM [activator]
same,Potency,[1],"inconclusive: 23.7 µM [falling, partial curve, poor fit]"
same,Potency,[6],inconclusive: 70.2 µM [single point]
same,Potency,[5]; [11],inconclusive: 30.7 µM
same,Potency,[3],active: 7.08 µM and active: 23.9 µM
same,Potency,[9],active: 22.4 µM
same,Potency,[10]; [12],inconclusive: 50.1 µM [cytotoxic]
